ChEMBL document CHEMBL4888484, “Replenishing the malaria drug discovery pipeline: Screening and hit evaluation of the MMV Hit Generation Library 1 (HGL1) against asexual blood stage Plasmodium falciparum ,using a nano luciferase reporter read-out” (2022)
Among all 150,000 compounds or so, about 540 (0.36%) showed an effect of 50% or more. The list shows a part of the results.

Each molecule was assayed on Plasmodium falciparum (assay: Primary screen in NF54 nanoGlo assay, in single point, at 2uM, 72h; a lower Z score goes with more inhibition). Settings: timepoint 72 hour.
Assay type: functional, Erythrocyte
`O=C(Oc1ccc(Cl)cc1Cc1ccccc1)c1ccc(S(=O)(=O)N2CCOCC2)cc1` was tested, and the “% Inhibition” value was -6% and the Z score was 0.81.
`Cc1ccc(NC(=O)NCCCNC(=O)C2CCC2)c(C)n1` was tested, and the “% Inhibition” value was -13% and the Z score was 1.3.
For `CCn1nccc1NC(=O)NCCCNc1cccnc1`, the “% Inhibition” value was -13% and the Z score was 1.68.
With `CC1(C)Cc2ccsc2CN1C(=O)c1cc2n(n1)CCO2` the “% Inhibition” value was 3% and the Z score was -0.44.
For `CC(C)n1cc(C(=O)N(CCOc2ccc(Cl)cc2)Cc2ccco2)cn1`, the “% Inhibition” value was -9% and the Z score was 1.28.
With `CC(C)Cn1nccc1-c1nc([C@@H](C)CNC(=O)OC(C)(C)C)no1` the “% Inhibition” value was -6% and the Z score was 1.04.
`COc1ccccc1NC(=O)N1CCC2(CC1)NC(=O)c1cc(Cl)ccc1N2C` was tested, and the “% Inhibition” value was -2% and the Z score was 0.28.
`CC1CNCCN1C(=O)C1CCN(c2ccc(F)c(F)c2)C1=O` (stereo not given) was tested, and the “% Inhibition” value was -4% and the Z score was 0.54.
With `COC(=O)c1nc(NC(=O)CCc2c(C)n[nH]c2C)sc1C` the “% Inhibition” value was -9% and the Z score was 1.1.
In the case of `COCCN1CN(c2nccc(C(F)(F)F)n2)CC1=O`, the “% Inhibition” value is reported as -3% and the Z score is reported as 0.29.
For `O=C1C[C@H](c2nc(-c3ccc(N4CCOCC4)cc3)no2)CN1C1CCCC1`, the “% Inhibition” value was -6% and the Z score was 0.78.
With `CCOc1ccc(NC(=O)CCc2ccc3[nH]cnc3c2)cc1` the “% Inhibition” value was -16% and the Z score was 2.17.
In the case of `C[C@@H](c1ccccn1)N(C)Cc1ccc(C(=O)N(C)C)[nH]1`, the “% Inhibition” value is reported as -7% and the Z score is reported as 1.23.
`Cc1ccc([C@H](CNC(=O)c2cccc(N3C(=O)CCS3(=O)=O)c2)N2CCCCC2)cc1` was tested, and the “% Inhibition” value was 7% and the Z score was -1.19.
`CCC1=C(C(=O)Nc2ccccc2)C2CCCC3(C2)N(C(=O)c2ccn(CC)n2)CCCN13` (stereo not given) was tested, and the “% Inhibition” value was 5% and the Z score was -0.59.
For `O=C(NCC[C@H]1CCc2ccccc2N1)c1ccsc1Cl`, the “% Inhibition” value was 12% and the Z score was -1.51.
`CN1C(=O)CC(C(=O)Nc2cc[nH]n2)C1c1ccc(Cl)c(F)c1` (stereo not given) was tested, and the “% Inhibition” value was -18% and the Z score was 2.07.
For `COC(=O)C[C@H](NC(=O)NCc1ccc(N2CCCC2=O)cc1)c1ccccc1Cl`, the “% Inhibition” value was 4% and the Z score was -0.82.
In the case of `O=C(COc1ccc(Cl)cc1Cl)Nc1nnc(Cc2nnc(NC(=O)COc3ccc(Cl)cc3Cl)s2)s1`, the “% Inhibition” value is reported as 2% and the Z score is reported as -0.37.
For `CCn1nc(C)n2cc(S(=O)(=O)NCc3ccc(F)cc3F)cc2c1=O`, the “% Inhibition” value was 11% and the Z score was -1.37.
With `COCCN(CC(=O)O)C(=O)c1nccnc1C(=O)N1CCCCC1` the “% Inhibition” value was -18% and the Z score was 1.89.
For `C[C@@H](C(=O)N1CC(=O)Nc2ccccc21)N1CCCCCC1`, the “% Inhibition” value was 0% and the Z score was -0.04.
With `CN=C(NC)NCc1c(F)cccc1F` the “% Inhibition” value was -3% and the Z score was 0.42.
In the case of `OC1(c2ncn(CCOc3cc(Cl)cc(Cl)c3)n2)CCC1`, the “% Inhibition” value is reported as -3% and the Z score is reported as 0.47.
For `CNc1ncccc1C(=O)N[C@H](c1ncnn1C)C(C)C`, the “% Inhibition” value was -3% and the Z score was 0.46.
In the case of `O=S(=O)(c1ccc(Cl)cc1)N1CCN(C2CCCC2)CC1`, the “% Inhibition” value is reported as 32% and the Z score is reported as -1.3.
In the case of `O=C(O)c1ccc(/N=C(\NCCc2ccccc2)N2CCN(C3CCCCC3)CC2)cc1`, the “% Inhibition” value is reported as -13% and the Z score is reported as 1.28.
With `O[C@@H](CNc1ccc2ccc(F)cc2n1)CN1CCOCC1` the “% Inhibition” value was -5% and the Z score was 0.87.
With `O=C(c1ccn(C(F)F)n1)N1CCCC[C@@H]1CCc1ccccc1` the “% Inhibition” value was -8% and the Z score was 1.61.
For `Cc1cccc2cc(-c3noc(-c4ccccc4)n3)c(NCCc3ccccn3)nc12`, the “% Inhibition” value was 0% and the Z score was -0.01.
`CC(O)C1CCCCN1S(C)(=O)=O` (stereo not given) was tested, and the “% Inhibition” value was 7% and the Z score was -0.87.
For `O=c1nc(-c2ccccc2)ccn1CCOCC(F)(F)C(F)F`, the “% Inhibition” value was -21% and the Z score was 2.85.
`COc1cc(CC(=O)NCc2nnc3nc(C)cc(C)n23)ccc1C` was tested, and the “% Inhibition” value was -11% and the Z score was 1.87.
`CC(NC(=O)c1ncccc1Br)C1CCOC1` (stereo not given) was tested, and the “% Inhibition” value was -12% and the Z score was 1.2.
`CN(C)Cc1cccc(CCNC(=O)c2cc[nH]c2C2CCC2)c1` was tested, and the “% Inhibition” value was -10% and the Z score was 1.87.
`N#Cc1ccccc1Oc1ccc(C(=O)Nc2ccccc2)nn1` was tested, and the “% Inhibition” value was -4% and the Z score was 0.66.
In the case of `COc1ccc(C(OC)C(C)NC(=O)Cc2c(C)[nH]c3ccnn3c2=O)cc1` (stereo not given), the “% Inhibition” value is reported as 36% and the Z score is reported as -4.83.
In the case of `CC(C)Cc1nc(CN(C)c2nc(-c3ccncc3)nc3c2CNC3)no1`, the “% Inhibition” value is reported as 1% and the Z score is reported as -0.23.
With `O=C(NCCc1ccco1)Nc1cc(C(=O)N2CCCCC2)ccc1Cl` the “% Inhibition” value was -21% and the Z score was 1.93.
`CCN(C)c1ccccc1NS(=O)(=O)c1sccc1OC` was tested, and the “% Inhibition” value was 31% and the Z score was -3.51.
For `Cc1noc(CCC(=O)N2CC3(CCCC3)c3cccc(Cl)c32)n1`, the “% Inhibition” value was 0% and the Z score was 0.07.
In the case of `C[C@@H]1CN(C(=O)c2coc(COc3ccc(F)cc3Cl)n2)C[C@H](C)O1`, the “% Inhibition” value is reported as -16% and the Z score is reported as 1.41.
With `CN(CCC(C)(C)O)c1nccc(C2CCCC2)n1` the “% Inhibition” value was -2% and the Z score was 0.39.
For `O=C1[C@@H]2C(c3ccc(Cl)cc3Cl)=NO[C@@H]2C(=O)N1C1CCCCC1`, the “% Inhibition” value was -10% and the Z score was 1.27.
`COc1ccccc1/N=C(/NC(=O)c1cccc(C)c1)N1CCN(C2CCCCC2)CC1` was tested, and the “% Inhibition” value was 1% and the Z score was -0.12.
For `COCc1nc(Cn2ccc3ncccc3c2=O)no1`, the “% Inhibition” value was -21% and the Z score was 2.
In the case of `COc1cc(NS(=O)(=O)c2ccc3c(c2)CCN3S(C)(=O)=O)cc(OC)c1`, the “% Inhibition” value is reported as -10% and the Z score is reported as 1.24.
With `Cc1n[nH]c(CN2CCOc3cc(F)c(Br)cc32)n1` the “% Inhibition” value was 0% and the Z score was 0.09.
`NC(=O)COC1CCN(C(C(=O)NC2CC2)c2ccccc2)C1` (stereo not given) was tested, and the “% Inhibition” value was -10% and the Z score was 1.31.
With `COc1ccc(-c2csc3ncnc(NC[C@H]4CCCO4)c23)cc1` the “% Inhibition” value was -7% and the Z score was 0.64.
In the case of `Fc1ccc(-c2n[nH]cc2-c2nnc(-c3ccncc3)o2)cc1`, the “% Inhibition” value is reported as -10% and the Z score is reported as 1.9.
In the case of `CC(NC1CCN(C(C)C)C1=O)C1CC1(C)C` (stereo not given), the “% Inhibition” value is reported as -18% and the Z score is reported as 3.32.
In the case of `O=C(O)c1ccc(Oc2nccnc2N2CCCC2)cc1`, the “% Inhibition” value is reported as 31% and the Z score is reported as -3.48.
With `COC(=O)[C@@H](Nc1nc(C)cc(OC)n1)C(C)C` the “% Inhibition” value was 7% and the Z score was -1.06.
`Cc1cnc(-c2noc(C(C)(C)F)n2)s1` was tested, and the “% Inhibition” value was -1% and the Z score was 0.11.
